# PubChem BioAssay AID488969 (Vanderbilt High Throughput Screening Facility, 2010)
# In all, about 110,000 compounds were measured (“z-score”: median about -0.1, highest 2% from about 2 on). The list shows a part of the results.
# Target: Metabotropic glutamate receptor 8 (Rattus norvegicus) (UniProt P70579)
# Assay: rat mGluR8 modulators via GIRK flux, primary screen, cell-based, thallium flux, HTS (AID 488969)
# Conditions: HEK293 rat mGluR8, GIRK (G protein-gated inwardly rectifying potassium channel) thallium flux, FluoZin2; at 10 µM; stronger effect = higher value; submaximal glutamate (EC20) added with thallium
# UniProt P70579, sequence (P70579 whole entry, looked up): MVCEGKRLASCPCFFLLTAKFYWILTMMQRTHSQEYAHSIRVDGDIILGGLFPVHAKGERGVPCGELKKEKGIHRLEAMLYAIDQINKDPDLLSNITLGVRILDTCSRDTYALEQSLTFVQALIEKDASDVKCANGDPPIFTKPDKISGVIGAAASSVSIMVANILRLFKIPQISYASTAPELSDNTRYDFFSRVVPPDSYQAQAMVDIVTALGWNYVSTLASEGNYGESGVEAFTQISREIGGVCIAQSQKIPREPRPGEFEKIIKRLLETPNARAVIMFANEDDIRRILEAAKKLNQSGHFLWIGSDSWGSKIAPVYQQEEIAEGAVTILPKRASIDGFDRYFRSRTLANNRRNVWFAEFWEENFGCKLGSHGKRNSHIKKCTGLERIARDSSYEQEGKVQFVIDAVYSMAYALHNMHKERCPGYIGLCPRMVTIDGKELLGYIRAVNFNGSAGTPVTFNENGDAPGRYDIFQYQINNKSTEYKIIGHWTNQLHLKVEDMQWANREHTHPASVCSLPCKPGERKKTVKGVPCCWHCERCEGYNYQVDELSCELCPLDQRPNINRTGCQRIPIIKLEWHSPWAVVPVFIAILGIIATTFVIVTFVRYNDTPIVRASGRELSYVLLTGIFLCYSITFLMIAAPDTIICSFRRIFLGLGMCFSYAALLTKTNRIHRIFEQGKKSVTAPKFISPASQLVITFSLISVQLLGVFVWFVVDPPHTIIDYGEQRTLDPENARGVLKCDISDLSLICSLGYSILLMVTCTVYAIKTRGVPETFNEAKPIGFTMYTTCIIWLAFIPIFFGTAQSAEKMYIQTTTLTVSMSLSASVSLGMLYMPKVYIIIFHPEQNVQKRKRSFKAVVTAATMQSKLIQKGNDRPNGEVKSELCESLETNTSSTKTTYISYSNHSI
row,SMILES,z-score
1,COc1ccc(-n2c(SC)nc(O)cc2=O)cc1,0.379
2,CCOC(=O)C(C)Oc1ccccc1C1NC(=O)NC(C)=C1C(=O)Nc1ccc(C)c(C)c1 (stereo unspecified),0.0731
3,CCC(=O)Nc1ccccc1C(=O)OCC(=O)Nc1ccc(S(N)(=O)=O)cc1,-2.45
4,O=C(CSc1nc2ccccc2n1-c1ccccc1)Nc1ncc(Cl)cc1Cl,0.463
5,CC(C)CNc1oc(-c2ccco2)nc1C#N,-0.118
6,Cc1c(C(=O)N2CCN(c3ccccn3)CC2)oc2ccccc12,-0.408
7,O=C(CN1CCCC1)NC1C2CC3CC(C2)CC1C3 (stereo unspecified),-0.0836
8,CCOC(=O)C1=C(C)N(C)C(=O)NC1c1ccc(C)s1 (stereo unspecified),-0.0391
9,Cc1ccc(-n2c(Cl)c(Cl)nc(Cl)c2=O)cc1,0.316
10,CN1C(=O)CS(=O)c2ccc(C(=O)NC3CC3)cc21 (stereo unspecified),-0.059
11,O=C(N/N=C/C1CC=CCC1)c1ccccc1O (stereo unspecified),-0.0983
12,NC(CC(=O)O)c1ccc(Br)cc1 (stereo unspecified),-0.0217
13,O=C(NC(=S)NCCSc1ccccc1)c1cccnc1,-0.113
14,O=C(CSc1cccc2cccnc12)NCc1ccco1,-0.028
15,Cc1ccccc1-n1c(SCC(=O)NCc2cccs2)nc2ccccc2c1=O,-0.762
16,N#CCSc1nc2sc3c(c2c(=O)n1C1CCCCC1)CCCC3,-0.811

row,SMILES,z-score
1,O=C(c1ccc(S(=O)(=O)Cc2cc(F)ccc2F)c([N+](=O)[O-])c1)N1CCCCC1,-0.346
2,CC(C)N(Cc1cc2ccccc2[nH]c1=O)C(=O)C(C)(C)C,-0.124
3,O=C(Nc1ccc(N2CCCCC2)c(Cl)c1)c1ccc2c(c1)OCCO2,-0.282
4,CC(C)Cn1c(CN2CCCCC2C)nc2c1c(=O)n(C)c(=O)n2C (stereo unspecified),-0.341
5,Cc1ccc(N(CN2CCCC2=O)C(=O)c2ccc(C)c(C)c2)cc1,-0.101
6,CCCCCCCCOc1ccc(C2OC34CCCCC3C(C#N)(C#N)C2(C#N)C(=N)O4)cc1 (stereo unspecified),-0.275
7,Cc1nn(C)cc1/C=C1\CCC/C(=C\c2cn(C)nc2C)C1=O,-0.272
8,O=C(Nc1ccc(S(=O)(=O)NCc2ccccc2)cc1)Nc1ccc2c(c1)OCO2,-0.608
9,CNS(=O)(=O)c1cccc(C(=O)OCC(=O)N2c3ccccc3CC2C)c1 (stereo unspecified),-0.232
10,CC1=NN(C(=O)Cc2ccccc2)C(O)(c2cccnc2)C1 (stereo unspecified),-0.429
11,C=CCn1c2ccccc2c2nnc(SCc3ccc4nonc4c3)nc21,0.0633
12,CC1(C)NC(=O)N(CC(O)CN(Cc2ccccc2)Cc2ccccc2)C1=O (stereo unspecified),0.0884
13,Cn1c(CCCNC(=O)c2ccccc2)nc2ccccc21,-0.174
14,CCOC(=O)c1sc2nc(CN3CCN(c4cccc(C(F)(F)F)c4)CC3)[nH]c(=O)c2c1C,0.255
15,CCOC(=O)c1nn(-c2cccc(C)c2)cc1C(=O)c1ccccc1,0.0743
